Measured values taken from PubChem BioAssay AID2100 (National Center for Advancing Translational Sciences (NCATS), 2009).
Screen size: about 300,000 compounds; about 1,200 (0.4%) were called active. The inconclusive results got no clear call from the source; some entries with a clear call stand among them for comparison. The call rests on the fitted dose curve; in most records, active means well fitted inhibition curve with a large enough effect; inconclusive means small, poorly fitted or top-dose-only effect, or another doubt; inactive means no such curve, though single readings can be large or run the other way. Potencies beside an inconclusive call are fits to weak or partial responses and may not hold up.

Target: Lysosomal alpha-glucosidase (Homo sapiens) (UniProt P10253)
Test: qHTS Assay for Inhibitors and Activators of Human alpha-Glucosidase Cleavage of Glycogen
Settings: recombinant GAA, glycogen substrate, Amplex Red glucose oxidase fluorescence; series mostly up to 76.4 µM
Procedure, shortened: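 Recombinant enzyme (4 nM final) with compounds titrated up to 77 uM and bovine liver glycogen (30 ug) in citrate pH 5.0, 0.01% Tween-20, 37 C 40 min. Released glucose detected by Amplex Red/glucose oxidase (Ex 573/Em 610); AC50 from Hill fits.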
Potency means the concentration at half of the fitted maximal effect.

SMILES	Potency
Oc1ccc(NC(=S)N=Nc2c(O)[nH]c3ccccc23)cc1	active: 39.8 µM
C/C(=N\Nc1nc2ccccc2[nH]1)c1cc2ccccc2o1	active: 11.2 µM
Cc1ccc(/C=N/Nc2ccc(C(=O)O)cc2)s1	inconclusive: 14.1 µM [inhibitor, partial curve]
CCOc1ccc2nc(C)cc(Nc3ccc(N4CCOCC4)cc3)c2c1	inactive
Cc1ccc(NC(=O)C(=O)c2cc(C)n(-c3ccc(F)cc3)c2C)cc1C	inactive
Cc1cc(=O)c2ccccc2[nH]1	inconclusive: 7.08 µM [inhibitor, single point]
Nc1cc(Cl)c(N)cc1Cl	active: 28.2 µM
Cc1ccccc1C(=O)NNc1ccc([N+](=O)[O-])cc1	inconclusive: 28 µM [inhibitor, partial curve]
CC1=NN(C(C#N)c2ccccc2)C(c2ccccc2)C1 (stereo unspecified)	inconclusive: 28 µM [activator, single point]
CCC(C)NC(=O)C1=CC(c2ccc3c(c2)OCO3)=NS(=O)(=O)N1C (stereo unspecified)	inconclusive: 50.1 µM [inhibitor, single point]
CCOc1ccc2c(c1)NC(c1cccs1)=NC(c1ccc(F)cc1)=N2	inconclusive: 11.2 µM [inhibitor, partial curve]
COc1cc(C(C[N+](=O)[O-])c2c(C)[nH]c3ccccc23)ccc1O (stereo unspecified)	inconclusive: 11.2 µM [inhibitor, partial curve]
OCC1CCCN(C(=S)Nc2ccc(Nc3ccccc3)cc2)C1 (stereo unspecified)	active: 25.1 µM
CCn1cc(C(=O)NN)c(=O)c2cc(F)c(N3CCN(C)CC3)cc21	inconclusive: 50.1 µM [inhibitor, single point]
O=C(NNc1ccccc1)C(=O)NNS(=O)(=O)c1ccc(CCCl)cc1	inconclusive: 50.1 µM [inhibitor, single point]
COc1ccc(OC)c(C(=O)/C=C/c2ccccc2C(F)(F)F)c1	inconclusive: 3.98 µM [inhibitor, single point]
Cc1c(NC(=S)N/N=C/c2ccc(O)cc2)c(=O)n(-c2ccccc2)n1C	active: 7.03 µM
COc1cccc(/C=N/NC(=O)CC2C(=O)NN=C2C)c1OC (stereo unspecified)	inconclusive: 15.7 µM [inhibitor, partial curve]
Cc1ccc2[nH]c(C)c(/C=N/Nc3nc4ccccc4s3)c2c1	active: 15.7 µM
Cc1cc(C(=O)OCC(=O)N2CCOCC2)c2ccccc2n1	inactive
NC(=S)N/N=C\c1ccccc1OCc1ccccc1	inconclusive: 35.5 µM [inhibitor, single point]
